# Out of some 310,000 compounds screened, about 14,000 (4.5%) showed an effect of 50% or more. The effect is printed as a negative number. Some of the results follow.
# Molecular target: human ether-à-go-go-related gene (hERG) potassium channel (human, UniProt Q12809)
# Assay: primary screen, population patch clamp on CHO cells stably expressing hERG
# 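Note: peak tail current of the secondary pulse compared with the same well before compound.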
# Chain of human ether-à-go-go-related gene (hERG) potassium channel (Q12809 whole entry, looked up): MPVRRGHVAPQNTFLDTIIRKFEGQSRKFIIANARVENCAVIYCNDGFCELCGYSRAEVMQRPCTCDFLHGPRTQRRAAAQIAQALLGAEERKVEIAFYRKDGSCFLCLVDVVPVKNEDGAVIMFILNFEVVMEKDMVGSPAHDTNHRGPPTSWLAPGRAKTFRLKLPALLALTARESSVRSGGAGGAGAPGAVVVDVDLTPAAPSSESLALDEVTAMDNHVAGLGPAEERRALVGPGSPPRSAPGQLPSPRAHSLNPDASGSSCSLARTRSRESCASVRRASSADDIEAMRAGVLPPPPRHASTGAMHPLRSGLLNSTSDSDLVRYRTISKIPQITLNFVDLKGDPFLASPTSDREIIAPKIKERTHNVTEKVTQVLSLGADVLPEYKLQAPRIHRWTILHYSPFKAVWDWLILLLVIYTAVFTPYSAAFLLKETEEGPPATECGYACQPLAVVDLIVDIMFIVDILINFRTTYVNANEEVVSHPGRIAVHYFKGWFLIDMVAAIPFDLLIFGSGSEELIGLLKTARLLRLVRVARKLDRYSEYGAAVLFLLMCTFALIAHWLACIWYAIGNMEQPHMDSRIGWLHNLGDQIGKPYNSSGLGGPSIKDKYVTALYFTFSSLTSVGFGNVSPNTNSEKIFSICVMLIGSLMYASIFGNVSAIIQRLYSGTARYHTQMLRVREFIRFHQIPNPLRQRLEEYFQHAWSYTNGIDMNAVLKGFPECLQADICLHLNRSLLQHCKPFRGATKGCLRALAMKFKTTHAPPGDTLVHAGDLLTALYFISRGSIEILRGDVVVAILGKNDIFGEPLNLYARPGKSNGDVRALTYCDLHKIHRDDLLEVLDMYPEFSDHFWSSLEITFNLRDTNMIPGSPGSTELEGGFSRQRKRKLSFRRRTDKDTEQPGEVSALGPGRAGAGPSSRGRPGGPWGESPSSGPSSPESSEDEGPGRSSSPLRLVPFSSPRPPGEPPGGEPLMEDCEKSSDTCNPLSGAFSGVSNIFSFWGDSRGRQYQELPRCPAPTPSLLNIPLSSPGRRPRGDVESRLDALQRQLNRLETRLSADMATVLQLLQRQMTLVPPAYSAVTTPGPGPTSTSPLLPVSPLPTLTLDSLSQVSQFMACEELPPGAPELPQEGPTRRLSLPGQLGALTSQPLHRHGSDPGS
row,Compound,"hERG current change (%, negative = inhibition) at 10uM"
1,Clc1cc(Cl)c(-c2cc(Cl)c(Cl)cc2Cl)cc1Cl,18.2%
2,CCCNC(=O)C1CCN(S(=O)(=O)c2cccc3nonc23)CC1,-3.97%
3,CC1CCCCC1NC(=O)COC(=O)c1ccc(S(=O)(=O)N2CCOCC2)cc1 (centres unmarked),13.6%
4,Cc1cc(C)n(C(=O)/C(C#N)=C/N(C)C)n1,0.348%
5,COc1ccc(N2CCN(C(=O)c3ccc(OCc4c(C)noc4C)c(OC)c3)CC2)cc1,6.01%
6,CCn1c(=S)sc2c(=O)n(CC(=O)Nc3cc(OC)ccc3OC)c(C)nc21,-14.4%
7,Cc1nn(CC(=O)N2CCN(c3ccccc3)CC2)c(=O)c2ccccc12,-2.21%
8,Cc1cc(OCc2n[nH]c(=S)n2-c2ccccc2)ccc1Cl,21.2%
9,CCCC(=O)N/C(N)=N/c1nc(C)c2cc(C)ccc2n1,-23.8%
10,COc1cc(C#Cc2c(-c3cncn3C)n(C)c3ccc(-c4ccc(OC)nc4)cc23)cc(OC)c1,10.8%
11,CCOc1ncccc1C(=O)OCc1csc(CC(=O)Nc2ccccc2C)n1,0.199%
12,COc1ccccc1N(C)S(=O)(=O)c1ccc(C(=O)OCC(=O)Nc2ccccc2F)cc1,11.9%
13,Cc1ccc2c(Cn3ccnc3)cc(=O)oc2c1C,13.7%
14,Cc1ccc2c(c1)[C@H]1[C@H](CO2)[C@H](c2ccccc2)[C@]2(C)C(=O)Nc3cc(Cl)ccc3C(=O)N12,23.9%
15,Cc1csc(N2CCc3ccccc32)n1,-11.1%
16,CCOC(=O)C1=C(C)N(CCCC(=O)O)C(=O)NC1c1ccc2ccccc2c1 (centres unmarked),-9.51%
17,O=C(NN1C(=O)c2ccccc2NC1c1ccccc1OCc1ccccc1)c1ccncc1 (centres unmarked),-1.43%
18,Cc1ccccc1CN1CCNC1=O,11.1%
19,Cc1nc(CSc2ccc(Br)cc2)cs1,22.9%
20,COC(=O)c1cc(C(=O)c2ccc(Cl)cc2Cl)cn1C,-16.4%
21,Cc1ccc(CNC(=O)CN(c2ccc(C)cc2)S(=O)(=O)c2c(C)nn(C)c2C)cc1,-0.614%
22,NS(=O)(=O)c1ccc(NC(=S)NC2CCCCCC2)cc1,12.4%

row,Compound,"hERG current change (%, negative = inhibition) at 10uM"
1,CC1CCc2cc(F)cc3c(O)c(C(=O)NCCN(C)C)c(=O)n1c23.Cl (centres unmarked),-1%
2,Cc1nc2ccccc2n1CCc1nc2c3ccccc3nc(SCC(=O)NCc3ccco3)n2n1,-60%
3,CCC(C(=O)NC1CC(C)(C)NC(C)(C)C1)c1ccccc1 (centres unmarked),7.18%
4,CC(C)=NNC(=O)c1c(O)c2ccccc2[nH]c1=O,-20%
5,Cc1cc(OCC(=O)OCC(=O)N2CCc3ccccc32)ccc1Cl,15.9%
6,C=CCn1c(NC(=O)c2ccccc2Cl)c(C#N)c2nc3ccccc3nc21,-13.2%
7,Cn1c(CC(=O)Nc2ccc(F)cc2)nnc1SCC(=O)Nc1nncs1,17.6%
8,O=C(CN1C(=O)NC2(CCCC2)C1=O)N1CCN(S(=O)(=O)c2cc(Cl)ccc2Cl)CC1,-20.8%
9,COc1ccc(CCN(C)C(=O)c2ccc(S(=O)(=O)Nc3ccccc3C)cc2)cc1OC,-3.26%
10,CCn1nc(C)c(NC(=O)CCSc2nc(-c3ccco3)cc(C(F)(F)F)n2)c1C,-13.8%
11,CCn1c2ccccc2c2cc(NC(=O)C(C)Oc3ccccc3)ccc21 (centres unmarked),-6.52%
12,CC(=O)c1ccc(N2CCN(C(=O)CN3C(=O)NC4(CCCCC4)C3=O)CC2)c(F)c1,0.416%
13,O=C(NC(=S)Nc1ccc2nc[nH]c2c1)c1ccccc1,12.4%
14,O=C(NCCCN1CCCC1=O)Nc1ccccc1Cl,15%
15,COc1ccc(CCNc2nc(-c3ccc(F)cc3)c(CC(=O)O)s2)cc1OC,6.64%
16,CS(=O)(=O)Nc1ccc(C2=NN(C(=O)c3ccco3)C(c3cccc(F)c3)C2)cc1 (centres unmarked),-78.3%
17,Cc1ccc2nc(NC(=O)c3ccc(-c4nc5ccccc5s4)s3)sc2c1,0.614%
18,Cn1c(Cc2ccccc2)nnc1SCc1cc(=O)n2ccsc2n1,35.1%
19,C[C@@H](C(=O)NC1CCCCC1)N1C(=O)N2CCc3c([nH]c4ccccc34)[C@@]2(C)C1=O,-20.7%
20,CC1=NN(c2ccc(Cl)c(C(=O)O)c2)C(=O)C1,1.19%
21,Cc1ccc(S(=O)(=O)N2CCN(C(=O)c3ccc4nc[nH]c4c3)CC2)cc1,-0.239%
22,COc1ccccc1NC(=O)CC(=O)Nc1ccccc1OC,6.01%

# Source: PMC4336329 (PLoS ONE, 2015)
